Assay results from patent US12318477B2, “Injectable and inhalable formulations” (CYBIN UK LTD, priority 2021, dated 2025).

Experiment: Stability of Example 10 formulations after storage for 3 months (related substances)
Settings: Example 10 formulation (25 mg/mL as free base, pH 6); 3 months storage at 40° C./75% RH

SMILES: CN(C)CCc1c[nH]c2ccccc12.O=C(O)/C=C/C(=O)O [SPL026, N,N-dimethyltryptamine (DMT) fumarate salt]
- total related substances: 0.35 % w/w
